Assay results as given in PubChem BioAssay AID1347073 (National Center for Advancing Translational Sciences (NCATS), 2019).
Among all 45,000 compounds or so, about 200 (0.44%) were called active. Roughly 7% stayed inconclusive and do not appear here. The call rests on the fitted dose curve; in most records, active means well fitted activation curve with a large enough effect; inconclusive means small, poorly fitted or top-dose-only effect; inactive means no such curve, though single readings can be large or run the other way. Some of the results follow.

assay: qHTS of TDP-43 Inhibitors: NCGC Sytravon Library Screen; details: yeast TDP-43 toxicity rescue, BacTiter-Glo growth, 24 h; series mostly up to 46.1 µM; growth rescue (activation): at the top concentration; further: 0% is about no effect; nearly all actives have a fitted effect of over 55% in size
Outline: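 TDP-43-expressing yeast, pregrown in raffinose, seeded at OD600 0.02 in galactose medium with compound for 24 hr at 30 deg C. Growth read by BacTiter-Glo luminescence, so rescue of toxicity appears as activation.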

SMILES	growth rescue (activation)
Cc1nnc(NC(=O)CSc2nnc(-c3ccco3)o2)s1	inactive: 1.47%
O=C(NCc1cccc(C(F)(F)F)c1)c1csc([C@@H]2C[C@H](O)[C@@H](CO)O2)n1	inactive: 2.44%
CS(=O)(=O)N(CC(=O)NCc1ccco1)c1ccc(Cl)cc1Cl	inactive: -1.95%
O=C(COC(=O)c1c2c(nc3ccccc13)/C(=C/c1cccc([N+](=O)[O-])c1)CCC2)NC1CCS(=O)(=O)C1 (centres undefined)	inactive: 0.331%
O=C(O)c1occc1CSc1ccccc1	inactive: 17%
CC1(C)[C@H]2CC=C(CN3CCC(N4CCC(C(=O)N5CCCC5)CC4)CC3)[C@@H]1C2	inactive: -2.08%
CCCCCOc1ccc(C(=O)CCC(=O)NC(C)c2ccc(S(N)(=O)=O)cc2)cc1 (centres undefined)	inactive: 8.02%
CCc1nnc(NC(=O)CCNC(=O)c2ccco2)s1	inactive: -16.9%
CCc1nc2c(OCC3CCCCC3)cccn2c1N(C)C(=O)c1ccc(OC)cc1	inactive: -4.63%
Cc1ccc(S(=O)(=O)NCC(=O)NCC(=O)OCC(=O)N2CC(=O)Nc3ccccc32)cc1C	inactive: 0.107%
COCCCNC(=S)N1CCN(C(=O)C(=O)Nc2ccc(C(=O)OC)cc2)CC1	inactive: 17.5%
CCCS(=O)(=O)Nc1ccc2cn[nH]c2c1	inactive: 11.4%
CCN(CC)S(=O)(=O)c1cccc(C(=O)Nc2ccc3c(c2)OCO3)c1	inactive: 20.7%
COc1cc(C(O)c2nc(-c3ccc(N(C)C)cc3)cs2)ccc1F (centres undefined)	inactive: 18.4%
Cc1ccccc1NC(=O)C1CCCN(S(=O)(=O)c2ccc(-n3cnnn3)cc2)C1 (centres undefined)	inactive: -0.366%
CC1CN(c2oc(-c3ccco3)nc2C#N)CC(C)O1 (centres undefined)	inactive: 6.54%
O=C(Nc1ccc(F)cc1)C(c1ccccc1)N1CCN(S(=O)(=O)c2c(F)cccc2F)CC1 (centres undefined)	inactive: 12%
Cc1nn(CC(=O)O)c(C)c1N	inactive: 28.5%
N=C1/C(=C\c2ccc(SCc3ccco3)o2)C(=O)N=C2SC=NN12	inactive: 11.2%
Cc1ccc2c(c1)N(Cc1cccc(C#N)c1)C=NS2(=O)=O	inactive: -13.1%
Cc1cc(C)cc(NC(=O)CSc2cc(C(=O)c3nccn3C)c3ccccc3n2)c1	inactive: 9.91%
O=C(Oc1ccc(Cl)c2cccnc12)C12CC3CC(CC(C3)C1)C2	inactive: 26.3%
CCc1ccc(N(CC(=O)NC2CCCC2)C(=O)CCC(=O)Nc2cc(C)on2)cc1	inactive: 15.5%
Cc1ccc(CN2CCCC(CO)(Cc3ccccc3C)C2)s1 (centres undefined)	inactive: -6.45%
Cc1ccc(CNC(=O)C(CC(C)C)OC(=O)c2ccco2)cc1 (centres undefined)	inactive: 12.1%
CC(C)(C)CC(=O)Nc1ccc(S(=O)(=O)NC2=NCCCCC2)cc1	inactive: 1.58%

SMILES	growth rescue (activation)
Cc1csc(NC(=O)c2ccc(N3CCCC3=O)cc2)n1	inactive: -18.9%
CCOC(=O)N1CCN(C(=O)C2CCN(C(=O)Nc3ccccc3)CC2)CC1	inactive: 0.839%
C/C(=N/NC(=O)c1cccs1)c1cccc(N)c1	inactive: 15.4%
N#C/C(=C(/O)c1ccc([N+](=O)[O-])cc1)c1nnc2n1CCCCC2	inactive: -10.8%
CCc1cccc(CC)c1NC(=O)CSc1nnc(C2CC2)n1C	inactive: 0.263%
COc1cc(NC(=O)N2CCc3nc(NCc4cccc(Oc5ccccc5)c4)ncc3C2)cc(OC)c1OC	inactive: 22.5%
COC(=O)C(C)Oc1cc(OC(C)C(=O)OC)c2c(C)c(Cl)c(=O)oc2c1 (centres undefined)	inactive: 12.9%
C#CCN1C(=O)S/C(=C/C=C/c2ccc(N(C)C)cc2)C1=O	inactive: 5.71%
Nc1nc(CSc2nnc(-c3cccc(F)c3)n2-c2ccccc2)nc(N2CCOCC2)n1	inactive: 0.621%
Cc1ccc(-n2nc(CC#N)c(C#N)c2N)cc1	inactive: 4.11%
O=C1CCN(C2CCN(Cc3nc(Cc4ccccc4F)no3)CC2)CCN1	inactive: -9.47%
COC(=O)c1cc(CSc2nc3ccc(C)cc3[nH]2)oc1C	inactive: 10.8%
Cc1ccc2c(c1)N(C)/C(=C/c1cccc[n+]1C)S2	inactive: -3.54%
COc1ccc2c(c1)[nH]c1c(=O)n(CCN3CCOCC3)cnc12	inactive: 12.9%
CC1(C(=O)NCc2ccco2)Cc2c(-c3cccc(C(F)(F)F)c3)ccnc2O1 (centres undefined)	inactive: 8.27%
COc1ccc(N2C(=O)C(CC(=O)Nc3ccccc3)N(CCc3ccc(OC)c(OC)c3)C2=O)cc1 (centres undefined)	inactive: -0.913%
COc1cc(/C=N/N=C2/NC(=O)C(CC(=O)O)S2)ccc1OCc1ccc(Cl)cc1 (centres undefined)	inactive: -9.79%
Cc1ccc(NC(=O)COC(=O)CCNS(=O)(=O)c2c(Cl)cccc2Cl)cc1	inactive: -20.2%
CCCCN(C(=O)CSc1nc2ccccc2s1)c1c(N)n(CCCC)c(=O)[nH]c1=O	inactive: 22.7%
C/C(=N\OC(=O)c1c(-c2c(F)cccc2Cl)noc1C)c1nccs1	inactive: 6.52%
Cc1ccc(-c2n[nH]c(=O)c3ccccc23)cc1S(=O)(=O)Nc1ccc(F)cc1	inactive: 26.6%
C=CCn1c(O)c(/C=C2\C=NN=C2c2ccccc2)sc1=S	inactive: 3.46%
COc1ccccc1NC1=C(N2CCCCC2)C(=O)c2ccccc2C1=O	inactive: 15.8%
CC(C)c1c(C(=O)N/N=C/c2cccnc2)nnn1-c1nonc1N	inactive: 5.54%
COc1cccc(C(NC(C)=O)c2nc(-c3cccc(NC(C)=O)c3)cs2)c1 (centres undefined)	inactive: -0.633%
CNC(=S)Nc1cccc(Cl)c1C	inactive: 2.81%

SMILES	growth rescue (activation)
COc1cccc(CNCCO)c1OCc1ccccc1Cl	inactive: 11.2%
COc1cc(S(=O)(=O)N2CCOCC2)ccc1NC(=O)COC(=O)/C=C/c1cc(OC)c(OC)c(OC)c1	inactive: 1.22%
CC(C)(C)c1ccc(S(=O)(=O)NC(=O)C2(C)CCN2C(=O)C2CCCCC2)cc1 (centres undefined)	inactive: 18.9%
CC(C)Oc1ccc(CCC(=O)NNC(=S)Nc2ccccc2)cc1	inactive: 12.2%
CCc1nnc(NC(=O)CSc2nc3ccc(OC)cc3[nH]2)s1	inactive: -8.17%
C/C(=N\NC(=O)c1ccc(C)cc1C)c1ccc2c(c1)OCO2	inactive: 20.7%
NNC(=O)c1cc2ccccc2[nH]1	inactive: 12.3%
c1ccc2c(c1)oc1c(NCCCN3CCOCC3)ncnc12	inactive: 3.58%
CC(C)Oc1ccc(C(=O)Nc2cccc(S(=O)(=O)N3CCCC3)c2)cc1	inactive: 26.9%
COc1ccc2c(COC(=O)c3cccc(S(=O)(=O)NCC(C)C)c3)cc(=O)oc2c1	inactive: 16.3%
CCOc1ccc(NC(=O)NNC(=O)c2ccc(CC)s2)cc1	inactive: -2.94%
CCOc1ccc(NC(=O)CN2C(=O)/C(=C3\SC(=S)N(C4CCS(=O)(=O)C4)C3=O)c3ccccc32)cc1 (centres undefined)	inactive: -25.2%
COc1cc(C(=O)COC(=O)C2CCCCC2)cc(OC)c1OC	inactive: 7.67%
N#Cc1cc([N+](=O)[O-])ccc1NC(=O)CSc1n[nH]c(=O)[nH]c1=O	inactive: -6.96%
Cc1c(CCO)sc[n+]1CC(=O)OC12CC3CC(CC(C3)C1)C2	inactive: -2.57%
OCCn1nc2c3ccccc3nc-2n(-c2ccccc2)c1=S	inactive: 7.7%
CC(=O)c1cccc(S(=O)(=O)N(C)C2CCN(C)CC2)c1	inactive: 11.3%
O=C(O)C1=C(C(=O)Nc2cccc(C(F)(F)F)c2)CCCC1	inactive: -0.596%
NC(=O)C12CCCC(Br)(CCC1)C2	inactive: -0.431%
Cc1[nH]c2ccc(Cl)cc2c(=O)c1CN1CCCC1	inactive: 6.9%
CCOC(=O)C1(Cc2ccccc2C)CCCN(C(=O)CCc2cccnc2)C1 (centres undefined)	inactive: 9.53%
Cc1ccc(C(=O)NCc2n[nH]c(=S)n2-c2ccccc2)cc1[N+](=O)[O-]	inactive: -5.08%
O=C(CSc1nnc(NC2CC2)s1)c1ccc[nH]1	inactive: 8.98%
OC(COCc1ccc2c(c1)OCO2)CN1CCN(Cc2ccccc2)CC1 (centres undefined)	inactive: -8.74%
Cn1cc(P(=S)(N2CCOCC2)N2CCOCC2)cc1P(=S)(N1CCOCC1)N1CCOCC1	inactive: 5.3%
O=C(NC1CCCN(c2ccc(C(F)(F)F)cn2)C1)c1ccnc(Cl)c1 (centres undefined)	inactive: 22.1%

SMILES	growth rescue (activation)
CCCOc1cccc(C2C(C(=O)c3cccs3)=C(O)C(=O)N2Cc2cccnc2)c1 (centres undefined)	inactive: 3.84%
O=C1N(Cc2ccccc2)CCCC12CCCN(Cc1ccccc1)C2=O	inactive: 16%
COc1ccc(/C=C/C(=O)c2cc(F)ccc2OC(=O)c2ccccc2C)cc1OC	inactive: 20.5%
CN1CCC(N(C)S(=O)(=O)c2ccc(NC(=O)c3ccc(S(=O)(=O)N(C)C)cc3)cc2)CC1	inactive: 7.41%
O=S(=O)(c1ccc(Br)s1)N1CCN(c2ccc(F)cc2)CC1	inactive: 1.75%
Cc1c(C(=O)OCC(=O)NC(=O)NC2CCCCC2)cccc1[N+](=O)[O-]	inactive: 16.9%
COc1cccc(N(C(=O)c2snc(C(N)=O)c2N)C(C(=O)NCC2CCCO2)c2c[nH]c3ccccc23)c1 (centres undefined)	inactive: 0.118%
CCOCCCNC(=O)c1ccc2c(c1)ncn2-c1cccc(C)c1	inactive: 21.3%
COc1cccc2cc(S(=O)(=O)c3ccc(C)cc3)/c(=N/NS(=O)(=O)c3ccc(C)cc3)oc12	inactive: -3.43%
COCCNc1nc(NCCNC(C)=O)c2sc(-c3ccccc3)cc2n1	inactive: -4.28%
O=C(COc1ccc2c(-c3ccccc3)cc(=O)oc2c1)NC(Cc1c[nH]c2ccccc12)C(=O)O (centres undefined)	inactive: 29.5%
CCOC(=O)C1ON2CCCCC2C1(O)C(F)(F)F (centres undefined)	inactive: 2.17%
CCC(Sc1nc(-c2cccc(OC)c2)c(C#N)c(=O)[nH]1)C(=O)Nc1nnc(C(C)C)s1 (centres undefined)	inactive: -21%
O=C(O)CSCC(=O)NCc1ccc(Cl)cc1Cl	inactive: 7.58%
O=C(/C=C/c1ccccc1)NC1CCSC1=O (centres undefined)	inactive: 11.8%
Cc1cccn2c(=O)c3cc(C#N)c(=NC(=O)c4ccco4)n(Cc4ccco4)c3nc12	inactive: 3.4%
CC(C)(C)N(Cc1cc2ccccc2[nH]c1=O)C(=O)C1CCCCC1	inactive: 10.5%
CCOC(=O)c1c(C)[nH]c(C(=O)N(C)Cc2cccc(OC)c2OC)c1C	inactive: -39.5%
Cc1c(NC(=O)CN2CCN(c3ccc([N+](=O)[O-])cc3)CC2)c(=O)n(-c2ccccc2)n1C	inactive: -5.5%
Cc1ccc(NC(=O)c2noc3c2CCC3)cc1C	inactive: 39.5%
Clc1ccc(Cn2nc(-c3ccccc3)nc2-c2ccccc2)cc1	inactive: -0.814%
Cc1cnc(C(=O)OCC(=O)N2CCc3ccccc3C2)cn1	inactive: -9.26%
Nc1nc2ncc(C(=O)c3cc(F)ccc3O)cc2s1	inactive: 24.2%
CCCC(=O)NC(c1ccc(C)cc1)c1ccc2cccnc2c1O (centres undefined)	inactive: 6.93%
COc1ccc(N(CC(=O)Nc2cc([N+](=O)[O-])ccc2C)S(C)(=O)=O)cc1OC	inactive: -24.7%
O=C(N/N=C/c1ccco1)c1ccc(NC(=O)c2ccc(Cl)cc2)cc1	inactive: -12.1%
